Laboratory results published in the supplement of paper PMC4604168 (melanoma cell lines).
The list shows a part of the results. Many values rest on one well or one pass, so single values are uncertain.

Legend:
Assay in all cases: cell count relative to DMSO control; melanoma cells; higher = more viable cells
Details in all cases: library dose: standard library concentration; 72 h
[1] = tested on: G361
[2] = tested on: IPC-298
[3] = tested on: IST-MEL1
[4] = tested on: LB2518-MEL
[5] = tested on: LOXIMVI
[6] = tested on: MEL-HO
[7] = tested on: MZ2-MEL
[8] = tested on: MeWo
[9] = tested on: RPMI7951
[10] = tested on: RVH-421
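Further: cells treated in 1,536-well plates, then fixed and DAPI-stained, with nuclei counted from automated high-throughput microscope images.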

SMILES | cell count [1] | cell count [2] | cell count [3] | cell count [4] | cell count [5] | cell count [6] | cell count [7] | cell count [8] | cell count [9] | cell count [10]
CC1(C)NC(=O)N(c2ccc([N+](=O)[O-])c(C(F)(F)F)c2)C1=O [nilutamide] + COc1cc(N2CCC(N3CCN(C)CC3)CC2)ccc1Nc1ncc(Cl)c(Nc2ccccc2S(=O)(=O)C(C)C)n1 [NVP-TAE684] (first compound 5 µM, partner dose 0.4 µM) | 87.4% | 111% | 98% | 96.3% | 78.1% | 91.1% | 96.6% | 79.6% | 60.5% | 87.2%
Cn1cncc1[C@@](N)(c1ccc(Cl)cc1)c1ccc2c(c1)c(-c1cccc(Cl)c1)cc(=O)n2C [tipifarnib] + CC(C)CCN1c2nc(Nc3cc(F)c(O)c(F)c3)ncc2N(C)C(=O)C1C [BID1870] (first compound 0.05 µM, partner dose 1 µM) | 46% | 63.5% | 67.2% | 82.8% | 54.9% | 70.1% | 73.3% | 55.6% | 36.8% | 86.7%
O=C(Nc1cccc(Cl)c1)Nc1ncc(CCNc2ncnc3ccsc23)s1 + Cn1cncc1[C@@](N)(c1ccc(Cl)cc1)c1ccc2c(c1)c(-c1cccc(Cl)c1)cc(=O)n2C [tipifarnib] (first compound 0.004 µM, partner dose 0.05 µM) | 60.5% | 74.8% | 41.8% | 73.7% | 64.7% | 79.3% | 62.1% | 49.9% | 48.4% | 78.4%
C[C@@H]1CCN(C(=O)CC#N)C[C@@H]1N(C)c1ncnc2[nH]ccc12 + N#Cc1c(O)c2c(-c3ccc(-c4ccccc4O)cc3)csc2[nH]c1=O [A769662] (first compound 5 µM, partner dose 10 µM) | 109% | 99.7% | 92.6% | 106% | 222% | 112% | 107% | 82.3% | 146% | 78.1%
CC1(C)NC(=O)N(c2ccc([N+](=O)[O-])c(C(F)(F)F)c2)C1=O [nilutamide] + CC(C)CCN1c2nc(Nc3cc(F)c(O)c(F)c3)ncc2N(C)C(=O)C1C [BID1870] (first compound 5 µM, partner dose 1 µM) | 57.9% | 72.2% | 89.8% | 124% | 83.3% | 80.6% | 105% | 69.1% | 89.6% | 70.9%
O=c1[nH]nc(Sc2ncc([N+](=O)[O-])s2)n1-c1ccc2c(c1)OCCO2 + C[C@]1(c2nc3c(C(N)=O)cccc3[nH]2)CCCN1 [Veliparib] (first compound 1 µM, partner dose 7 µM) | 79.9% | 107% | 96.3% | 80.1% | 80.7% | 105% | 101% | 93.4% | 77.5% | 101%
Cn1cncc1[C@@](N)(c1ccc(Cl)cc1)c1ccc2c(c1)c(-c1cccc(Cl)c1)cc(=O)n2C [tipifarnib] + O=C(O)c1ccc(-c2c[nH]c3ncc(-c4ccccc4)cc23)cc1C1CCCC1 [GSK650394] (first compound 0.05 µM, partner dose 0.8 µM) | 54.2% | 79.3% | 60.2% | 64.6% | 82.3% | 82.8% | 105% | 74.7% | 63.7% | 103%
O=c1[nH]nc(Sc2ncc([N+](=O)[O-])s2)n1-c1ccc2c(c1)OCCO2 + NC(=O)c1ccc(N(C(N)=O)c2c(F)cccc2F)nc1-c1ccc(F)cc1F [VX702] (first compound 1 µM, partner dose 2 µM) | 88.3% | 87.8% | 91.4% | 82.4% | 106% | 89.2% | 83% | 93.4% | 102% | 68.5%
CC1(C)NC(=O)N(c2ccc([N+](=O)[O-])c(C(F)(F)F)c2)C1=O [nilutamide] + COc1ccc2c(c1)CCC1C2CCC2(C)C(NCCCCCCN3C(=O)C=CC3=O)CCC12 [U73122] (first compound 5 µM, partner dose 2 µM) | 85% | 98% | 99.4% | 110% | 77.2% | 108% | 97.8% | 62.5% | 43.7% | 105%
CC1(C)NC(=O)N(c2ccc([N+](=O)[O-])c(C(F)(F)F)c2)C1=O [nilutamide] + O=C(Nc1cccc(Cl)c1)Nc1ncc(CCNc2ncnc3ccsc23)s1 [SNS314] (first compound 5 µM, partner dose 0.004 µM) | 69.5% | 82% | 61.3% | 90.4% | 64.3% | 79.2% | 78.2% | 64.2% | 68.5% | 69.6%
O=c1[nH]nc(Sc2ncc([N+](=O)[O-])s2)n1-c1ccc2c(c1)OCCO2 + Oc1cc(-c2nc(-c3ccccc3)[nH]c2-c2ccncc2)ccc1Cl [L779450] (first compound 1 µM, partner dose 1 µM) | 68.8% | 77.4% | 86.7% | 85.9% | 93.9% | 81.7% | 92.5% | 99.8% | 125% | 62.8%
C[C@@H]1CCN(C(=O)CC#N)C[C@@H]1N(C)c1ncnc2[nH]ccc12 + O=C(Nc1cccc(Cl)c1)Nc1ncc(CCNc2ncnc3ccsc23)s1 [SNS314] (first compound 5 µM, partner dose 0.004 µM) | 78.1% | 104% | 70.6% | 88.4% | 76.7% | 87.3% | 92.9% | 84.5% | 64.8% | 75.8%
O=c1[nH]nc(Sc2ncc([N+](=O)[O-])s2)n1-c1ccc2c(c1)OCCO2 + Cc1cn(-c2cc(NC(=O)c3ccc(C)c(Nc4nccc(-c5cccnc5)n4)c3)cc(C(F)(F)F)c2)cn1 [nilotinib] (first compound 1 µM, partner dose 1 µM) | 94.3% | 92.5% | 76.6% | 79.7% | 136% | 104% | 107% | 94.4% | 90.5% | 130%
O=c1[nH]nc(Sc2ncc([N+](=O)[O-])s2)n1-c1ccc2c(c1)OCCO2 + CC(=O)c1c(C)c2cnc(Nc3ccc(N4CCNCC4)cn3)nc2n(C2CCCC2)c1=O [palbociclib] (first compound 1 µM, partner dose 0.2 µM) | 65.3% | 68.8% | 77.8% | 65.9% | 82.7% | 74.4% | 64.9% | 55.3% | 69% | 77.3%
O=c1[nH]nc(Sc2ncc([N+](=O)[O-])s2)n1-c1ccc2c(c1)OCCO2 + CC(C)CCN1c2nc(Nc3cc(F)c(O)c(F)c3)ncc2N(C)C(=O)C1C [BID1870] (first compound 1 µM, partner dose 1 µM) | 77.1% | 94.8% | 90.5% | 106% | 79.3% | 81% | 115% | 79.4% | 73.5% | 71.2%
Cn1cncc1[C@@](N)(c1ccc(Cl)cc1)c1ccc2c(c1)c(-c1cccc(Cl)c1)cc(=O)n2C [tipifarnib] + Oc1cc(-c2nc(-c3ccccc3)[nH]c2-c2ccncc2)ccc1Cl [L779450] (first compound 0.05 µM, partner dose 1 µM) | 51.4% | 68.2% | 90.1% | 52.8% | 97.6% | 84.3% | 89.1% | 89% | 92.4% | 87.7%
C[C@@H]1CCN(C(=O)CC#N)C[C@@H]1N(C)c1ncnc2[nH]ccc12 + COc1cc(N2CCC(N3CCN(C)CC3)CC2)ccc1Nc1ncc(Cl)c(Nc2ccccc2S(=O)(=O)C(C)C)n1 [NVP-TAE684] (first compound 5 µM, partner dose 0.4 µM) | 93.4% | 93% | 101% | 96.1% | 83.7% | 90% | 84.6% | 66.7% | 61.1% | 90.4%
C[C@@H]1CCN(C(=O)CC#N)C[C@@H]1N(C)c1ncnc2[nH]ccc12 + c1cc(-c2cnn3cc(-c4ccc(OCCN5CCCCC5)cc4)cnc23)ccn1 [Dorsomorphin] (first compound 5 µM, partner dose 2 µM) | 72.5% | 84.8% | 84.8% | 62.4% | 50.2% | 94.2% | 80% | 87.2% | 67.7% | 121%
CC1(C)NC(=O)N(c2ccc([N+](=O)[O-])c(C(F)(F)F)c2)C1=O [nilutamide] + Cc1cc(N2CCOCC2)cc2[nH]c(-c3c(NC[C@@H](O)c4cccc(Cl)c4)cc[nH]c3=O)nc12 [BMS536924] (first compound 5 µM, partner dose 1 µM) | 69.7% | 96.5% | 98.9% | 81.6% | 70.8% | 103% | 109% | 74.2% | 91% | 98.6%
O=C(Nc1cccc(Cl)c1)Nc1ncc(CCNc2ncnc3ccsc23)s1 + CCN(CC)CCCCNc1ncc2cc(-c3cc(OC)cc(OC)c3)c(NC(=O)NC(C)(C)C)nc2n1 [PD173074] (first compound 0.004 µM, partner dose 0.5 µM) | 75.1% | 80.1% | 65.1% | 82.6% | 76.2% | 70% | 81% | 75.6% | 46.3% | 59.5%
O=C(Nc1cccc(Cl)c1)Nc1ncc(CCNc2ncnc3ccsc23)s1 + O=C(O)C(=O)Nc1sc2c(c1C(=O)O)CCNC2 [TCS401] (first compound 0.004 µM, partner dose 8.33333 µM) | 67.1% | 86.7% | 74.3% | 71.7% | 97.8% | 75.3% | 77.9% | 53.8% | 71.6% | 80.7%
O=c1[nH]nc(Sc2ncc([N+](=O)[O-])s2)n1-c1ccc2c(c1)OCCO2 + CC1(C)NC(=O)N(c2ccc([N+](=O)[O-])c(C(F)(F)F)c2)C1=O [nilutamide] (first compound 1 µM, partner dose 5 µM) | 95.1% | 106% | 83.8% | 85.8% | 80.1% | 91.7% | 121% | 97.7% | 107% | 95.3%
